Results from PubChem BioAssay (NCI).
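In this assay, cells in 96-well plates receive the compound at five concentrations for 48 hours. Endpoints are linearly interpolated between the surrounding concentrations. Here, GI50 denotes the concentration required for 50% inhibition of growth. TGI is the concentration that stops growth completely.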 Peptide text beside a SMILES is read from it. * marks the point of attachment. Cbz = O=C(OCc1ccccc1)*; Boc = CC(C)(C)OC(=O)*; tBu = CC(C)(C)*

test system: NCI-H322M lung; test: NCI tumour cell line growth inhibition, 48 h

| Compound | GI50 | TGI |
| --- | --- | --- |
| COC(=O)[C@H](Cc1c[nH]c2ccccc12)NC(=O)[C@@H](OC)[C@@H]1Cc2cc3cc(OC4CC(OC5CC(O)C(O)C(C)O5)C(O)C(C)O4)c(C)c(O)c3c(O)c2C(=O)[C@H]1OC1CC(OC2CC(OC3CC(C)(O)C(O)C(C)O3)C(O)C(C)O2)C(O)C(C)O1 (some centres not stated) | 0.00726 µM | 0.115 µM |
| CCOC(=O)C(Cc1cn(S(=O)(=O)c2ccccc2)c2ccccc12)(NC(C)=O)C(=O)OCC |  | > 100 µM |
| CCN(CC)CCCC(C)Nc1cnc(C(=O)Nc2cccc3ccc(OC)nc23)cn1 (configuration not stated) | 2.34 µM | 5.9 µM |
| COc1cc2c(c(OC)c1)C1(CC(CC#N)C2)SCCS1 (configuration not stated) |  | > 100 µM |
| COC(C(O)c1ccc2c(c1)OCO2)P(=O)(c1ccccc1)c1ccccc1 (configuration not stated) |  | > 100 µM |
| Cn1cnc([N+](=O)[O-])c1[Se]c1nc(N)nc2c1ncn2C1OC(CO)C(O)C1O (configuration not stated) |  | > 100 µM |
| NNc1nncc2n[nH]nc12 |  | > 100 µM |
| COc1cc2c3c(n(CCNCCCNCCn4c5c(c6cc(OC)c(OC)cc6c4=O)C(=O)c4ccccc4-5)c(=O)c2cc1OC)-c1ccccc1C3=O | 0.0593 µM | 2.85 µM |
| CC1ON2CCCC2[C@H]1C(=O)N1C2CC3CCC2(CS1(=O)=O)C3(C)C (some centres not stated) |  | > 100 µM |
| CN(C)C(c1ccccc1)C(O)c1ccccc1 (configuration not stated) |  | > 100 µM |
| C/C=C1/C(=C/c2[nH]c(/C=c3\[nH]/c(=C/C4=NC(=O)C(CC)=C4C)c(C)c3CCC(=O)O)c(CCC(=O)O)c2C)NC(=O)C1C (configuration not stated) | > 150 µg/mL | > 150 µg/mL |
| CCCCCN(CCCCC)CC(O)c1ccc(Cl)c2ccccc12 (configuration not stated) | 16.5 µM | 61.2 µM |
| CC(=O)N1C/C(=C\c2ccc(N(C)C)cc2)C(=O)/C(=C/c2ccc(N(C)C)cc2)C1 |  | > 100 µM |
| O=c1[nH]c(=O)n(C2OC(CO)C(O)C(O)C2O)cc1F (configuration not stated) |  | > 100 µM |
| Cc1ccc(C)c(COCCOCn2ccc(N)nc2=O)c1 |  | > 100 µM |
| COC/C=C\[C@]1(O)CCCC[C@@H]1CC(OC)OC |  | > 100 µM |
| COc1ccc(O)c(/C(C)=N/NC(=S)N(C)C)c1 |  | > 100 µM |
| O=C1O/C(=C(/Cl)c2cccc3ccccc23)c2ccccc21 |  | > 100 µM |
| CC(C)(C)c1ccc(-c2nc3ccc(Cl)cc3c(=O)o2)cc1 |  | 98.3 µM |
| c1ccc(CSP234N5CCN2CCN3CCN4CC5)c(CSP234N5CCN2CCN3CCN4CC5)c1 |  | > 100 µM |
| O=C1C(Cl)C(c2cccc(Cl)c2)N1c1ccc(-n2c(=S)[nH]c3ccccc3c2=O)cc1 (configuration not stated) |  | 90.3 µM |
| CNC(=O)N1CN(c2ccccc2)C2(CCN(CCCC3(c4ccc(F)cc4)OCCO3)CC2)C1=O |  | > 100 µM |
| c1ccc2c(c1)nc1n2CNC1 |  | > 100 µM |

| Compound | GI50 | TGI |
| --- | --- | --- |
| CC(C)(C)c1ccc(O)c(CN(Cc2cc(C(C)(C)C)ccc2O)c2ccccc2)c1 |  | 31.2 µM |
| CCc1ccc(Nc2ccc([N+](=O)[O-])cc2[N+](=O)[O-])cc1 |  | > 100 µM |
| Cc1ccc(NC(=O)NCCCOc2ccc(N3C(N)=NC(N)=NC3(C)C)cc2Cl)cc1S(=O)(=O)F | 21.4 µM | > 100 µM |
| CC12CCC([C@H](C(O)C3CCCCC3)C1=O)C2(C)C (some centres not stated) |  | > 100 µM |
| O=C(O)Cc1cccc2c1OC(c1ccccc1)C(Cl)(C(=O)c1ccccc1)C2=O (configuration not stated) |  | 49.5 µM |
| CCCCOC(=O)NC(=O)c1cn(C2CCCCC2)c(=O)[nH]c1=O |  | 60.8 µM |
| COc1cc(O)c2c(c1)OCC(Cc1ccc(O)cc1)C2=O (configuration not stated) |  | > 100 µM |
| Cc1cc(C)n(C2OC(CO)C(O)C(O)C2O)c(=S)c1C#N (configuration not stated) |  | > 100 µM |
| COc1cc(OC)c2c(=O)c(OC)c(-c3ccc4c(c3)OCO4)oc2c1 |  | > 100 µM |
| O=C1NC2OCC(O)C(O)C2O1 (configuration not stated) |  | > 100 µM |
| CN(C)/C=N/S(=O)(=O)c1nn2c(C=O)c(-c3ccc(Cl)cc3)nc2s1 |  | 25.7 µM |
| O=c1oc2cc(O)ccc2c(O)c1C(c1ccccc1F)c1c(O)c2ccc(O)cc2oc1=O |  | > 100 µM |
| CSc1nc2cc(S(=O)(=O)N3CCCCC3)ccc2s1 |  | > 100 µM |
| CC1=N/C(=C\c2cccc([N+](=O)[O-])c2)C(=O)O1 |  | > 100 µM |
| COc1ccc(CCN2CCN(CCc3ccc(OC)cc3)CC2)cc1 |  | > 100 µM |
| CC(C)Oc1ccc2c(c1)OCC1Cc3ccccc3OC21 (configuration not stated) |  | > 100 µM |
| CC[CH2][Sn]([Cl])([Cl])[CH2]CC.Oc1ccccc1C=NCCN=Cc1ccccc1O | 14.3 µM | 30.4 µM |
| COc1ccc(OC)c(C(=O)c2oc3ccc(Br)cc3c2N)c1 | 0.867 µM | 45 µM |
| N#CCC(=O)NC1C2CC3CC(C2)CC1C3 (configuration not stated) |  | 32.5 µM |
| CC(OC(C)(C)C)C(NC(=O)C(CCCCNC(=O)OC(C)(C)C)NC(=O)C(Cc1c[nH]c2ccccc12)NC(=O)C(Cc1ccccc1)NC(=O)OCc1ccccc1)C(=O)NC(Cc1ccccc1)C(=O)O (configuration not stated) (Cbz-FWK(Boc)T(tBu)F-OH; configuration not given here) |  | > 100 µM |
| CN1C(=O)c2ccccc2NC(=O)C12O[C@@H]2c1cccc(O)c1 (some centres not stated) |  | > 100 µM |
| CCCCCCC(=O)C/C(=N/NC(N)=S)C(=O)NC1C2CC3CC(C2)CC1C3 (configuration not stated) |  | > 100 µM |
| O=C1/C(=C/c2ccc(O)cc2)CSc2ccc(Cl)cc21 | 16.9 µM | 39.6 µM |

| Compound | GI50 | TGI |
| --- | --- | --- |
| COC(=O)c1c(C)[nH]c(/C=C2\N=C(c3ccc[nH]3)C=C2OC)c1C | 1.56 µM | 6.5 µM |
| CC(=O)OCCOCn1cnc2c(Cl)nc(Cl)nc21 |  | 61.3 µM |
| O=C(/C=C\n1cnc(-c2cc(C(F)(F)F)cc(C(F)(F)F)c2)n1)NNc1cnccn1 | 0.142 µM | 12.5 µM |
| Cc1cc(O)c(C(C)(C)C)cc1Sc1cc(C(C)(C)C)c(O)cc1C | 3.91 µM | 15 µM |
| C=C(C)C1CCC2(C(=O)O)CCC3(C)C(CCC4C5(C)CCC(OC(=O)NCc6ccccc6)C(C)(C)C5CCC43C)C12 (configuration not stated) | 2.64 µM | 32.4 µM |
| COc1ccc(-n2cc(-c3cc(OC)c(OC)c(OC)c3)[nH]c2=O)cc1Cl | > 100 µM | > 100 µM |
| CCOC(=O)CN=C1NNS(=O)(=O)c2ccccc21 |  | > 100 µM |
| O=C1OC(c2ccco2)=N/C1=C\c1cccc([N+](=O)[O-])c1 |  | > 100 µM |
| O=C1O/C(=C(/Br)c2ccc(Cl)c(Cl)c2)c2ccccc21 |  | > 10 µM |
| CO[C@H]1C=C[C@@]23c4cc5c(cc4CO[C@]2(O)CN(C)[C@H]3C1)OCO5 |  | > 100 µM |
| COc1cc2c(cc1OC)CCc1cc(OC)c(OC)cc1CC2 |  | > 100 µM |
| CC(=O)OC1(C)C=CC(=O)C=C1 |  | > 100 µM |
| Cc1ccc2c3c(c(=O)[nH]c2c1)C1(C(C#N)=C(N)O3)c2cc(Br)ccc2-c2ccc(Br)cc21 | 2.5 µM | 6.53 µM |
| CCNc1cc2c(cc1O)CC[C@@H]1[C@@H]2CC[C@]2(C)[C@@H](O)CC[C@@H]12 |  | 3.88 µM |
| CCN(CC)CC(=O)O[C@]1(CC)C(=O)OCc2c1cc1n(c2=O)Cc2cc3ccccc3nc2-1 |  | 0.585 µM |
| COC(=O)C12C3C4C1C1C2C3C41NC(=O)c1csc([C@@H](C[C@H](C(C)C)N(C)C(=O)[C@@H](NC(=O)[C@H]2CCCCN2C)C2CC2)OC(C)=O)n1 (some centres not stated) | 0.177 µM | > 33.3 µM |
| COc1ccc(-c2nnc(COc3ccc(NC(=O)Nc4ccc(Cl)c(C(F)(F)F)c4)cc3F)o2)cc1 | 5.63 µM | 67.7 µM |
| N#C/C(=C\c1cc2ccccc2c2ccccc12)c1ccccc1 |  | > 100 µM |
| Cn1c2ccccc2c2c3[nH]c(=O)[nH]c(=O)c3c3c4ccccc4n(C)c3c21 | 3.11 µM | > 100 µM |
| COc1cc(OC)cc(-c2nc3cc(F)ccc3s2)c1 |  | > 100 µM |
| N#CCc1ccc(C(C#N)/C(CCCC(=O)Nc2cccc([N+](=O)[O-])c2)=N/NC(N)=S)cc1 (configuration not stated) |  | > 100 µM |
| O=S1(=O)N(CCNc2nccc(-c3c(-c4cccc(O)c4)nc4sccn34)n2)CCN1Cc1ccccc1 | 15 µM | > 50 µM |
